This is an account of results in the supplement of paper PMC4604168 (melanoma cell lines).

Some test systems named below: MZ2-MEL; MeWo; RPMI7951; RVH-421; SkMel28; SkMel2; SkMel30; SkMel5; UACC257; UACC62.
Assay in all cases: cell count relative to DMSO control; melanoma cells; higher = more viable cells
What all share (details): library dose: low library concentration; 72 h

The other results are listed elsewhere or left out. Single values are uncertain, as repeats are few or missing.
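Further: cell number obtained by counting DAPI-stained nuclei in high-throughput microscope images with image analysis software, screen run in 1,536-well plates.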

Take `C[C@@H](Oc1cc(-c2cnn(C3CCNCC3)c2)cnc1N)c1c(Cl)ccc(F)c1Cl` [Crizotinib] + Cn1cncc1[C@@](N)(c1ccc(Cl)cc1)c1ccc2c(c1)c(-c1cccc(Cl)c1)cc(=O)n2C [tipifarnib] (first compound 0.2 µM, partner dose 0.01 µM): the cell count in the experiment on MZ2-MEL stood at 99.5%; in the experiment on MeWo it was 77.4%; with RPMI7951 it was 81.8%; with RVH-421 it was 95.9%; with SkMel28, 83.3%; in the experiment on SkMel2, 84.7%. The cell count came to 94.7% in the experiment on SkMel30, 88.4% with SkMel5, 76.2% in the experiment on UACC257 and 63.5% with UACC62.
With `CS(=O)(=O)CCNCc1ccc(-c2ccc3ncnc(Nc4ccc(OCc5cccc(F)c5)c(Cl)c4)c3c2)o1` [lapatinib] + Cn1c(Nc2ccc(C(F)(F)F)cc2)nc2cc(Oc3ccnc(-c4ncc(C(F)(F)F)[nH]4)c3)ccc21 [CHIR265] (first compound 0.8 µM, partner dose 0.08 µM), the cell count in the experiment with MZ2-MEL came to 81.7%; in the experiment on MeWo, 72%; in the experiment on RPMI7951, 48.3%; in the experiment on RVH-421, 58.3%; in the experiment on SkMel28, 62.7%; with SkMel2 it was 78.2%. For the same compound, the cell count in the experiment on SkMel30 was 58.5%; in the experiment on UACC62, 49.5%.
`C[C@@H](Oc1cc(-c2cnn(C3CCNCC3)c2)cnc1N)c1c(Cl)ccc(F)c1Cl` [Crizotinib] + Cn1c(Nc2ccc(C(F)(F)F)cc2)nc2cc(Oc3ccnc(-c4ncc(C(F)(F)F)[nH]4)c3)ccc21 [CHIR265] (first compound 0.2 µM, partner dose 0.08 µM): the cell count was determined as 96.9% in the experiment on MZ2-MEL; 76.2% in the experiment with MeWo; 66.6% in the experiment on RPMI7951; 55.5% in the experiment with RVH-421; 73.4% with SkMel28; 92.3% in the experiment on SkMel2. For the same compound, the figures for the cell count in the experiment with SkMel30 and in the experiment with UACC62 were 78.5% and 57.2%, respectively.
Turning to `C[C@@H](Oc1cc(-c2cnn(C3CCNCC3)c2)cnc1N)c1c(Cl)ccc(F)c1Cl` [Crizotinib] + COc1cc2c(Oc3ccc4[nH]c(C)cc4c3F)ncnc2cc1OCCCN1CCCC1 [cediranib] (first compound 0.2 µM, partner dose 0.4 µM), the cell count with MZ2-MEL was 98.5%; in the experiment on MeWo, 99.7%; in the experiment with RPMI7951, 114%; in the experiment on RVH-421, 104%; in the experiment with SkMel28 it was 108%; in the experiment on SkMel2 it was 96.6%. The cell count came out at 105% in the experiment on SkMel30, 102% with SkMel5, 83.5% in the experiment on UACC257 and 88.2% with UACC62.
As to `C[C@@H](Oc1cc(-c2cnn(C3CCNCC3)c2)cnc1N)c1c(Cl)ccc(F)c1Cl` [Crizotinib] + C=C(c1ccc(C(=O)O)cc1)c1cc2c(cc1C)C(C)(C)CCC2(C)C [Bexarotene] (first compound 0.2 µM, partner dose 2 µM), the cell count in the experiment with MZ2-MEL amounted to 90.7%; with MeWo, 80.5%; with RPMI7951 it was 84.3%; with RVH-421, 95.5%; with SkMel28 it was 79.9%; in the experiment with SkMel2, 87.7%. For the same compound, the cell count with SkMel30 amounted to 95.4%; with UACC62 it was 74.2%.
Take `CS(=O)(=O)CCNCc1ccc(-c2ccc3ncnc(Nc4ccc(OCc5cccc(F)c5)c(Cl)c4)c3c2)o1` [lapatinib] + CCCCCCCCCCCC1=C(O)C(=O)C=C(O)C1=O [Embelin] (first compound 0.8 µM, partner dose 1.2 µM): the cell count was 97.3% with MZ2-MEL; 90.3% in the experiment on MeWo; 98.7% in the experiment with RPMI7951; 99.7% in the experiment on RVH-421; 92.8% with SkMel28; 98% in the experiment with SkMel2. Besides, the cell count in the experiment on SkMel30 was determined as 92.4%; in the experiment with SkMel5 it was 100%; in the experiment with UACC257, 84.1%; in the experiment with UACC62 it was 95.1%.
For the compound `C[C@@H](Oc1cc(-c2cnn(C3CCNCC3)c2)cnc1N)c1c(Cl)ccc(F)c1Cl` [Crizotinib] + CCCS(=O)(=O)Nc1ccc(F)c(C(=O)c2c[nH]c3ncc(Cl)cc23)c1F [PLX4720] (first compound 0.2 µM, partner dose 0.08 µM), the cell count with MZ2-MEL was 84%; with MeWo, 88.2%; with RPMI7951, 114%; in the experiment on RVH-421, 77.2%; with SkMel28, 78.5%; in the experiment with SkMel2, 92.9%. The cell count came out at 107% in the experiment with SkMel30 and 75% with UACC62.
Turning to `CS(=O)(=O)CCNCc1ccc(-c2ccc3ncnc(Nc4ccc(OCc5cccc(F)c5)c(Cl)c4)c3c2)o1` [lapatinib] + Nc1nc(F)nc2c1ncn2[C@@H]1O[C@H](CO)[C@@H](O)[C@@H]1O [fludarabine] (first compound 0.8 µM, partner dose 0.2 µM), the cell count in the experiment with MZ2-MEL was found to be 98.9%; in the experiment on MeWo it was 43.2%; with RPMI7951 it was 95.2%; in the experiment with RVH-421 it was 94.3%; in the experiment with SkMel28 it was 88.1%; in the experiment on SkMel2, 11.7%. For the same compound, the cell count in the experiment with SkMel30 amounted to 20.9%; in the experiment with UACC62, 88.1%.
For `CNC(=O)c1cc(Oc2ccc(NC(=O)Nc3ccc(Cl)c(C(F)(F)F)c3)cc2)ccn1` [sorafenib] + C#Cc1cccc(Nc2ncnc3cc(OCCOC)c(OCCOC)cc23)c1 [erlotinib] (first compound 0.4 µM, partner dose 0.8 µM), the cell count came to 92.3% with MZ2-MEL; 85.7% with MeWo; 77.3% in the experiment on RPMI7951; 103% with RVH-421; 89.5% with SkMel28; 100% in the experiment on SkMel2. For the same compound, the cell count was determined as 83.7% in the experiment on SkMel30 and 87.5% with UACC62.
With `CS(=O)(=O)CCNCc1ccc(-c2ccc3ncnc(Nc4ccc(OCc5cccc(F)c5)c(Cl)c4)c3c2)o1` [lapatinib] + CC(=O)c1c(C)c2cnc(Nc3ccc(N4CCNCC4)cn3)nc2n(C2CCCC2)c1=O [palbociclib] (first compound 0.8 µM, partner dose 0.04 µM), the cell count in the experiment on MZ2-MEL was determined as 85.9%; with MeWo, 78.7%; in the experiment with RPMI7951 it was 76.3%; in the experiment with RVH-421 it was 111%; in the experiment on SkMel28 it was 71.8%; with SkMel2, 91.9%. In addition, the values for the cell count in the experiment on SkMel30 and in the experiment with UACC62 were 82.6% and 87.8%, respectively.
Turning to `CS(=O)(=O)CCNCc1ccc(-c2ccc3ncnc(Nc4ccc(OCc5cccc(F)c5)c(Cl)c4)c3c2)o1` [lapatinib] + Clc1ccc(Nc2nnc(Cc3ccncc3)c3ccccc23)cc1 [vatalanib] (first compound 0.8 µM, partner dose 2 µM), the cell count in the experiment on MZ2-MEL was 95.3%; in the experiment on MeWo it was 84.6%; in the experiment with RPMI7951 it was 84.7%; in the experiment on RVH-421 it was 113%; in the experiment on SkMel28 it was 106%; in the experiment on SkMel2 it was 87.3%. Moreover, the cell count in the experiment on SkMel30 was 86.8%; in the experiment on UACC62, 95%.
`CNC(=O)c1cc(Oc2ccc(NC(=O)Nc3ccc(Cl)c(C(F)(F)F)c3)cc2)ccn1` [sorafenib] + CC(=O)c1c(C)c2cnc(Nc3ccc(N4CCNCC4)cn3)nc2n(C2CCCC2)c1=O [palbociclib] (first compound 0.4 µM, partner dose 0.04 µM): the cell count in the experiment on MZ2-MEL is 80.7%; in the experiment on MeWo it was 80.1%; in the experiment on RPMI7951 it was 76%; in the experiment with RVH-421, 98.9%; in the experiment on SkMel28 it was 93%; in the experiment on SkMel2 it was 91%. Also, the cell count was determined as 102% with SkMel30 and 83.5% in the experiment with UACC62.
Regarding `C[C@@H](Oc1cc(-c2cnn(C3CCNCC3)c2)cnc1N)c1c(Cl)ccc(F)c1Cl` [Crizotinib] + O=C(O)c1ccc2c(c1)nc(Nc1cccc(Cl)c1)c1ccncc12 [CX4945] (first compound 0.2 µM, partner dose 0.4 µM), the cell count in the experiment on MZ2-MEL turned out to be 89.6%; in the experiment on MeWo, 91.2%; in the experiment on RPMI7951, 110%; in the experiment on RVH-421 it was 81.2%; in the experiment on SkMel28 it was 84.6%; with SkMel2 it was 99.2%. Moreover, the cell count worked out at 105% in the experiment with SkMel30 and 98.5% in the experiment with UACC62.
Regarding `CNC(=O)c1cc(Oc2ccc(NC(=O)Nc3ccc(Cl)c(C(F)(F)F)c3)cc2)ccn1` [sorafenib] + Nc1nc(F)nc2c1ncn2[C@@H]1O[C@H](CO)[C@@H](O)[C@@H]1O [fludarabine] (first compound 0.4 µM, partner dose 0.2 µM), the cell count in the experiment on MZ2-MEL was determined as 94.2%; with MeWo it was 48.4%; in the experiment on RPMI7951 it was 83%; with RVH-421, 103%; in the experiment with SkMel28 it was 85.8%; with SkMel2 it was 14.3%. The cell count in the experiment with SkMel30 came out at 27.2%; in the experiment with UACC62 it was 80.9%.
For `CN1CCN(c2ccc3nc(-c4c(N)c5c(F)cccc5[nH]c4=O)[nH]c3c2)CC1` [Dovitinib] + CNC(=O)c1cc(Oc2ccc(NC(=O)Nc3ccc(Cl)c(C(F)(F)F)c3)cc2)ccn1 [sorafenib] (first compound 0.1 µM, partner dose 0.4 µM), the cell count was determined as 75.8% in the experiment with MZ2-MEL; 82% in the experiment with MeWo; 95.8% in the experiment with RPMI7951; 116% in the experiment with RVH-421; 82.6% with SkMel28; 97% with SkMel2. In addition, the values for the cell count with SkMel30 and with UACC62 were 41.4% and 74.8%, respectively.
For `CNC(=O)c1cc(Oc2ccc(NC(=O)Nc3ccc(Cl)c(C(F)(F)F)c3)cc2)ccn1` [sorafenib] + CS(=O)(=O)CCNCc1ccc(-c2ccc3ncnc(Nc4ccc(OCc5cccc(F)c5)c(Cl)c4)c3c2)o1 [lapatinib] (first compound 0.4 µM, partner dose 0.8 µM), the cell count came to 96.5% in the experiment with MZ2-MEL; 86.8% in the experiment on MeWo; 73.2% with RPMI7951; 89.8% with RVH-421; 97.4% with SkMel28; 87.4% in the experiment with SkMel2. The cell count in the experiment with SkMel30 stood at 106%; with UACC62, 96.8%.
Regarding `C=CCNC1=C2C[C@@H](C)C[C@H](OC)[C@H](O)[C@@H](C)/C=C(\C)[C@H](OC(N)=O)[C@@H](OC)/C=C\C=C(/C)C(=O)NC(=CC1=O)C2=O` [Tanespimycin] + Cn1c(Nc2ccc(C(F)(F)F)cc2)nc2cc(Oc3ccnc(-c4ncc(C(F)(F)F)[nH]4)c3)ccc21 [CHIR265] (first compound 0.002 µM, partner dose 0.08 µM), the cell count in the experiment with MZ2-MEL stood at 77.9%; with MeWo, 55.9%; in the experiment with RPMI7951, 45%; in the experiment with RVH-421, 68.2%; in the experiment with SkMel28 it was 58.2%; in the experiment on SkMel2, 83.6%. Besides, the cell count came out at 62.7% with SkMel30 and 53.9% in the experiment on UACC62.
